Laboratory results taken from PubChem BioAssay AID686979 (National Center for Advancing Translational Sciences (NCATS), 2013).
Among all 420,000 compounds or so, about 50,000 (12%) were called active. This list was built around the results that the source calls inconclusive (neither active nor inactive); the mix of calls is not that of the screen. Calls follow the shape of the dose curve; as a rule, active = well fitted inhibition curve with a large enough effect; inconclusive = small, poorly fitted or top-dose-only effect; inactive = flat fitted curve, though single readings scatter. Potencies of inconclusive entries are left out as doubtful fits.

test: qHTS for Inhibitors of human tyrosyl-DNA phosphodiesterase 1 (TDP1): qHTS in cells in presence of CPT; conditions: chicken DT40 Tdp1-/-;hTDP1 cells + 20 nM CPT, ATP luminescence, 48 h; activity change, negative = growth inhibition: at 46.2 µM (top of the series) unless noted; also: nearly all actives have a fitted effect of over 55% in size
Method in brief: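 Chicken DT40 Tdp1-/- cells stably complemented with human TDP1 were seeded at 400 cells/well in medium containing 20 nM camptothecin, exposed to pin-transferred compounds, and grown at 37 °C for at least 48 hr. Viability was read as ATP luminescence.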
% is scaled to controls: 0 for no effect and ±100 for the full control effect; potency is read from the fitted curve at half-maximal effect; tags tell the direction and shape of the fitted curve.

SMILES	Potency	activity change, negative = growth inhibition
Cc1ccccc1-c1nc(CS(=O)CC(=O)NC(C)CCc2ccccc2)c(C)o1 (stereo unspecified)	inconclusive [inhibitor, single point]	–
CCOC(=O)C1CCN(c2cc3c(cc2NC(=O)c2ccc(Cl)cc2)n(C)c(=O)n3C)CC1	active: 8.2 µM	–
O=C1Nc2ccccc2OC1CC(=O)N1CCCC1 (stereo unspecified)	–	inactive: -25.4%
CC1(c2ccc3ccccc3c2)NC(=O)N(CC(=O)N2CCN(c3ccccc3O)CC2)C1=O (stereo unspecified)	inconclusive [inhibitor, single point]	–
COc1ccc(OCC(O)Cn2c(N3CCCCC3)nc3c2c(=O)n(C)c(=O)n3C)cc1 (stereo unspecified)	inconclusive [inhibitor, single point]	–
O=C(CSc1ccc([N+](=O)[O-])cc1)Nc1ccccc1N1CCOCC1	inconclusive [inhibitor, single point]	–
O=C(NCCN1CCCCC1)Nc1cccc(C(F)(F)F)c1	–	inactive: 3.25%
O=C(Nc1ccccc1C(=O)O)c1ccc(Br)c(S(=O)(=O)NCc2ccccc2)c1	inconclusive [inhibitor, single point]	–
Cc1cc(Nc2ccccc2F)n2nc(-c3ccccc3)nc2n1	inconclusive [inhibitor, single point]	–
O=C(Cc1ccccc1)Oc1coc(CSc2ncccn2)cc1=O	–	inactive: 7.05%
Cc1ccc(NC(=O)/C=C/c2ccco2)nc1	active: 0.013 µM	–
O=C(CN1CCCC1)Nc1sc2c(c1C(=O)Nc1ccccc1)CCCC2	inconclusive [inhibitor, single point]	–
COc1ccc(-c2cc3c(c4c2ccn4C)C2CCC3C2)cn1 (stereo unspecified)	inconclusive [inhibitor, partial curve]	–
Cn1ncc([N+](=O)[O-])c1C(=O)N1CCOCC1	–	inconclusive: -34.1% [inhibitor]
CCOC(=O)C1CCCN1C(=O)c1ccc(OC)c(Br)c1 (stereo unspecified)	–	inactive: -15%
O=C(CSc1cccc2cccnc12)N/N=C/c1ccncc1	–	inactive: -24.7%
c1ccc(Cn2nnnc2C(c2cccs2)N2CCCCCC2)cc1 (stereo unspecified)	–	inactive: -18.9%
COc1ccc(OCC(O)CN(C2CCCCC2)C2CCCCC2)cc1 (stereo unspecified)	inconclusive [inhibitor, single point]	–
COc1ccccc1-c1nn2c(-c3ccco3)nnc2s1	inconclusive [inhibitor, single point]	–
O=C(NCCCO)c1cc2c([nH]c3ccccc32)c(-c2ccccc2)n1	active: 14.6 µM	–
C[C@@H]1CN([C@H](C)CO)C(=O)c2c(c3ccccc3n2C)-c2ccccc2CO[C@H]1CN(C)Cc1ccc(Oc2ccccc2)cc1	inconclusive [inhibitor, single point]	–
C#CCn1c(=NC(=O)CSCC(=O)N2CCOCC2)sc2ccccc21	–	inactive: -8.97%
C#CCOCCOCCOCCNc1nc(N2CCN(C(=O)CCCCCCCCCCNC(=O)Cn3cc(CCCCCN)nn3)CC2)nc(N2CCN(C(=O)CCCCCCCCCCNC(=O)[C@H]([C@@H](C)CC)n3cc(CCCCCN)nn3)CC2)n1	active: 23.1 µM	–
CC(=O)c1ccccc1S(=O)(=O)N1CCN(c2nc(-c3cccs3)nc3ccccc23)CC1	active: 8.91 µM	–

SMILES	Potency	activity change, negative = growth inhibition
O=C(NCC1CCCO1)c1cccc2c1C(=O)c1ccc(N3CCC(Cc4ccccc4)CC3)cc1S2(=O)=O (stereo unspecified)	inconclusive [inhibitor, single point]	–
Cc1nn(-c2ccccc2)c(NC(=O)c2ccccc2)c1Br	inconclusive [inhibitor, partial curve]	–
CC(=O)Nc1cccc(-c2ccnc3c2CC(C)(C(=O)NC(C)C)O3)c1 (stereo unspecified)	inconclusive [inhibitor, single point]	–
CC1=C(C(=O)OC(C)C)[C@@H](c2cccc3nonc23)C([N+](=O)[O-])=C(C)N1	inconclusive [inhibitor, single point]	–
Cc1ccc(NC(=O)C(=O)NCC(c2cccnc2)N2CCN(Cc3ccccc3)CC2)cc1C (stereo unspecified)	active: 16.4 µM	–
COc1ccccc1-n1nnnc1S(=O)(=O)Cc1ccc(Cl)cc1	active: 5.8 µM	–
CC1CCN(C(=S)c2cn(Cc3ccccc3F)c3ccccc23)CC1	inconclusive [inhibitor, single point]	–
COc1cccc(-n2c(SCC(=O)N3c4ccccc4CC3C)nnc2-c2ccco2)c1 (stereo unspecified)	inconclusive [inhibitor, single point]	–
Cc1ccc2c(c1)[C@H]1[C@H](CO2)[C@H](c2ccccc2)[C@]2(C)C(=O)Nc3ccc(Cl)cc3C(=O)N12	inconclusive [inhibitor, single point]	–
O=C(CN1c2cccc3cccc(c23)S1(=O)=O)NC1CCCCC1	inconclusive [inhibitor, single point]	–
CC(=O)SCC(=O)N=c1sc2cc(F)ccc2n1C	inconclusive [inhibitor, single point]	–
Nc1nnnn1CC(=O)N/N=C/c1cc([N+](=O)[O-])ccc1Cl	active: 14.6 µM	–
O=c1cc(-c2ccccc2)[nH]n1-c1nc2ccccc2[nH]1	inconclusive [inhibitor, single point]	–
COC(=O)c1c(NC(=O)COC(=O)CCc2ccc(S(=O)(=O)N3CCOCC3)cc2)sc2c1CCC2	inconclusive [inhibitor, single point]	–
O=C(COc1ccccc1)Nc1cccc2nsnc12	–	inactive: 7.86%
Cc1ccc(N/C(=C\C(=O)c2ccccc2)C(=O)O)cc1	–	inactive: -7.62%
CC(OC(=O)c1ccccc1Oc1ccccc1)C(=O)NC1CC1 (stereo unspecified)	inconclusive [inhibitor, single point]	–
N#Cc1ccc(C(=O)N2CCCCC2c2cc(C(=O)Nc3ccccc3Cl)no2)cc1 (stereo unspecified)	–	inactive: -25.9%
O=C(OCC(=O)N1CCOCC1)c1ccc2ccccc2c1	–	inactive: 1.63%
CCCn1nc(C(=O)Nc2cc(OCC)c(N3CCOCC3)cc2OCC)c2ccccc2c1=O	active: 16.4 µM	–
CC(C)=CCC/C(C)=C/CNC(=O)C[C@H]1C[C@H](C(=O)N2CCCCC2)[C@@]2(C)c3[nH]c4cc(-c5ccco5)ccc4c3CCN2C1=O	inconclusive [inhibitor, single point]	–
Cc1nn(CC(=O)Nc2cccc(O)c2)c(=O)c2ccccc12	–	inactive: -3.03%
Cc1cccc(-n2c(SCC(=O)N3CCN(c4ccccn4)CC3)nnc2N2CCOCC2)c1	–	inactive: 0.441%
CCN(CC)C(=O)Cn1c(=O)cc(C)c2c(C)nn(-c3cccc(Cl)c3C)c21	active: 14.6 µM	–

SMILES	Potency	activity change, negative = growth inhibition
Cc1[nH]n2c(=O)c3c(nc2c1-c1ccccc1)CCCC3	inconclusive [inhibitor, single point]	–
COC(=O)NNC(=S)Nc1ccc(Br)cc1	inconclusive [inhibitor, single point]	–
COC(=O)CN1C(=O)Nc2ccc(Cl)cc2C1c1ccccc1 (stereo unspecified)	–	inactive: -14.5%
C/C=C1\NC(=O)[C@H]2CSSCC/C=C/[C@H](CC(=O)N[C@H](C(C)C)C(=O)N2)OC(=O)C(C(C)C)NC1=O (stereo partly specified)	active: 0.0015 µM	–
Cc1ccc(C)c(N(C)C(=O)CCS(=O)(=O)c2cccc3nonc23)c1	–	inactive: 1.26%
COc1ccc(OC)c(S(=O)(=O)N2CCCC(C(=O)NCCc3ccccc3)C2)c1 (stereo unspecified)	–	inactive: -18.8%
CCn1c(SCC(=O)c2[nH]c(C)c(C(C)=O)c2C)nnc1-c1cccs1	inconclusive [inhibitor, single point]	–
COc1ccc(C2NC(=S)NC3=C2CCCC3=C2SCCS2)cc1 (stereo unspecified)	active: 2.31 µM	–
CCOC(=O)C1=C(CN2CCN(c3ccc(OC)cc3)CC2)NC(=O)NC1c1ccc(OC)cc1 (stereo unspecified)	inconclusive [inhibitor, single point]	–
CCN1CCN(c2cc(C)c3cc(NC(=O)c4cccs4)ccc3n2)CC1	inconclusive [inhibitor, single point]	–
Cc1ccc(Nc2nc3nonc3nc2Nc2cccc(C(F)(F)F)c2)cc1Cl	active: 0.517 µM	–
CCCSc1nc(N)c2c3c(sc2n1)CN(C)CC3	–	inactive: -25.8%
Cc1cc(Cl)ccc1OCC(=O)NC1CCCC1	active: 11.6 µM	–
COCCCNc1c2c3c(cccc3[nH]c1=O)C(=O)c1ccccc1-2	active: 14.6 µM	–
Cc1nc2cnc(N3CCN(C)CC3)nc2n(Cc2cccs2)c1=O	inconclusive [inhibitor, partial curve]	–
Cc1ccnc(NC(=O)c2cccc3ccccc23)c1	inconclusive [inhibitor, partial curve]	–
Cc1ccc(Cl)cc1NC(=S)NN	inconclusive [inhibitor, single point]	–
COc1cc2[nH]cc(C(=O)NCCc3ccccc3)c(=O)c2cc1OC	inconclusive [inhibitor, single point]	–
CCOc1ccc2nc(SCC(=O)NCC3CCCO3)c(C#N)cc2c1 (stereo unspecified)	inconclusive [inhibitor, single point]	–
COc1ccc(C(=O)O/N=C(\N)c2ccc(OC)c(OC)c2)cc1	inconclusive [inhibitor, partial curve]	–
Cc1cc(Cl)ccc1OCCCC(=O)Nc1cc(S(=O)(=O)N2CCOCC2)ccc1N1CCOCC1	inconclusive [inhibitor, single point]	–
Cc1cccc(Oc2nc(-c3ccccc3)cc(C)c2S(C)(=O)=O)c1C	inconclusive [inhibitor, single point]	–
Cc1ccc(S(=O)(=O)Nc2c(C)nn(C)c2C)c(C)c1	inconclusive [inhibitor, single point]	–
